# The list shows a part of the results.
# System: T1, C. trachomatis L2/434/Bu expressing GFP (CTL2-GFP)
# T1 construct: L2/434/Bu GFP intracellular growth in HeLa cells
# Design: species or system HeLa; C. trachomatis total inclusion area by high-content imaging, normalised to DMSO
# Settings: total inclusion area; 28.5 h, 10 µM; inhibitor
# In short: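 Imaging read-out: GFP inclusions and Hoechst nuclei captured by high-content imaging after fixation. Inclusion area/number = chlamydial growth; nuclei count = host cell viability. MIC calculated per earlier method.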
row,Structure (SMILES),% of control remaining
1,Cc1cc(C)[n+]2c(n1)N(c1ccccc1)CC2 [CBK017327G],89.9554
2,O=C(Cn1c(NCCO)nc2ccccc21)C12CC3CC(CC(C3)C1)C2 [CBK262129B],103.44
3,CSCCC(=O)N1CCC2(CCN(C(=O)c3cc(F)c(F)cc3F)C2)C1 (stereo not shown) [CBK131397],103.392
4,O=C(O)c1ccc(OC(=O)C2CCCC2)cc1 [CBK090156],6.548
5,Cc1cccc(NC(=O)CSCc2ccc(Cl)s2)n1 [CBK297895],65.7025
6,COc1ccc(-c2nc(NC(=O)c3ccco3)cnc2-c2cccc(C)c2)cn1 [CBK036954],95.582
7,Cc1cnc(CNC(=O)C2(c3ccccc3)CCCC2)cn1 [CBK149531],126.165
8,Cc1ccc(CCC(=O)N2CCCCC2c2nc3ccccc3[nH]2)o1 (stereo not shown) [CBK282316],65.7311
9,NS(=O)(=O)c1ccc(NC(=O)c2cccnc2)cc1 [CBK264488],112.428
10,COc1ccc([C@]23CN(C)C[C@H]2CCN(C(=O)c2ccc4c(c2)OC(F)(F)O4)C3)cc1OC [CBK075110T],85.5178
11,Cc1nn(C)c(Cl)c1CN1CCOC(c2ccccc2)C1 (stereo not shown) [CBK305244],108.842
12,O=C(O)C1Cc2ccccc2C(=O)N1CCc1ccccc1 (stereo not shown) [CBK286592],120.302
13,Cc1ccc(OCC(=O)Nc2ccc(N3CCN(Cc4ccccc4)CC3)cc2)cc1C [CBK266085],103.709
14,O=C1NCCCNC(=O)C2(C/C=C/CCOc3ccccc31)CCN(C(=O)CN1CCCC1)CC2 [CBK292052],118.294
15,CC(=O)Nc1ccc(/C(C)=N/NC(=O)c2ccc(CN3CCOCC3)cc2)cc1 [CBK262720],107.22
16,CCC1=NN(c2ccccc2)C(=O)C(CC(=O)Nc2ccccc2)c2cc(OC)c(OC)cc21 (stereo not shown) [CBK260938],96.852
17,O=c1[nH]nc2c(S(=O)(=O)N3CCCCC3)cccn12 [CBK288450],66.4378
18,c1ccc(Sc2cccc3ccccc23)nc1 [CBK085856],75.338
19,O=C(COC(=O)c1cc(-c2ccco2)nc2ccccc12)Nc1ccc(F)c(F)c1F [CBK296115],57.4291
20,CCOC(=O)CC(=O)Nc1c(Br)cc(Br)cc1C(=O)O [CBK261412],94.0304
21,O=C(CN1CCN(c2cc(-c3ccc4ccccc4c3)ncn2)CC1)N1CCCC1 [CBK091064],139.491

row,Structure (SMILES),% of control remaining
1,COCCNC(=O)c1cc(C2CN(CCc3ccccc3)CCO2)nc2ccccc12 (stereo not shown) [CBK285622],105.81
2,Cc1ccc(S(N)(=O)=O)cc1CNC(=O)Nc1cccc(F)c1 [CBK093516],98.5779
3,Cc1cc(C)n(-c2cc(C)c3ccccc3n2)n1 [CBK262358],102.558
4,NC(CSC12CC3CC(CC(C3)C1)C2)C(=O)O (stereo not shown) [CBK287219],88.2848
5,S=C(NCc1ccc(Cl)c(Cl)c1)Nc1ccncc1 [CBK016649],66.139
6,c1ccc2c(c1)CCCN2Cc1nc2ccccc2[nH]1 [CBK138329],106.845
7,Nc1nc2ccccc2n1CCOc1ccc(Cl)cc1 [CBK087352],96.2159
8,Cc1c(Cl)cccc1NC(=O)C(=O)NCCCN1CCOCC1 [CBK263276],83.588
9,O=C(COc1ccc(S(=O)(=O)N2CCCCC2)cc1)NCc1cccnc1 [CBK268328],89.8632
10,CCOC(=O)CN1CCCN(c2c(F)cc(C#N)cc2F)CC1 [CBK304148],71.3736
11,CCn1c2ccccc2c2cc(NC(=O)CSc3nnc(-c4ccoc4C)o3)ccc21 [CBK269010],77.2518
12,Clc1nsnc1N1CCOCC1 [CBK019133],56.3125
13,CN(C)CCNCCP(=O)(c1ccccc1)c1ccccc1 [CBK263049],98.6319
14,S=C(NCCn1cc(Br)cn1)NCc1ccco1 [CBK266914],116.39
15,O=C(c1ccc(F)cc1)[C@H]1CCCN(C(=O)c2cc[nH]n2)C1 [CBK284331],88.1336
16,COC(=O)c1ccsc1NS(=O)(=O)c1ccc(F)cc1 [CBK039060],92.7359
17,CCOc1cccc(-c2ccc(Nc3cccc(NC(=O)c4ccncc4)c3)nc2)c1 [CBK037739],35.9195
18,O=C(Nc1ccc2ccccc2c1)N1CCN(C(=O)C2CCCO2)CC1 (stereo not shown) [CBK044043],81.6556
19,Cc1c(C(=O)O)sc(S(=O)(=O)N2CCN(C(=O)c3ccc(Cl)cc3)CC2)c1C(=O)O [CBK297123],88.3999
20,O=C(Nc1nc(-c2ccco2)c(-c2ccncc2)s1)C1CC1 [CBK284494],110.927
21,Cc1ccc(C(=O)NC[C@H]2O[C@@H](CC(=O)N3CCCC3)[C@H](O)[C@@H]2O)cc1 [CBK288912],75.3462

row,Structure (SMILES),% of control remaining
1,CC(C)(C)OC(=O)N1CCCC(NC(CO)c2ccco2)CC1 (stereo not shown) [CBK304049],99.5115
2,O=C(O)c1oc2ccccc2c1CSc1ccccn1 [CBK286981],107.979
3,COc1ccc(C[C@@H]2NC(=O)[C@H]3CN(C(=O)c4cccn4C)CCN3C2=O)cc1 [CBK289616],86.2558
4,CCN(NC(=O)c1ccccc1-n1cccc1)c1ccc(C)cc1 [CBK161507],106.134
5,O=C(O)C1CCN(C(=O)CSc2nnc(-c3ccccc3F)n2C2CCCC2)CC1 [CBK296971],86.0152
6,COc1ccc(S(=O)(=O)N2CCC(C(=O)NCc3cccnc3)CC2)cc1Cl [CBK267613],106.699
7,CCn1ncc2c1CCCC2NC1CCCN(c2cnn(C)c2)C1=O (stereo not shown) [CBK305316],76.821
8,Cc1ccc(CCC(=O)N(CC(=O)O)C2CCOCC2)c(C)c1 [CBK304509],52.0164
9,Cc1cc(C)n(CC(=O)N[C@H]2CC[C@H]2N)c(=O)n1 [CBK307647],102.888
10,CCn1cnc(S(=O)(=O)N2CCC(OCc3ccccc3)CC2)c1 [CBK305228],27.0646
11,CC1=CCC2C(=O)N(C(CC(C)C)C(=O)O)C(=O)C2C1 (stereo not shown) [CBK287172],120.332
12,CC(C)(C)S(=O)(=O)CC(N)=S [CBK021304],75.6538
13,Cc1ccc2nc(-c3ccccc3)c(C)c(C(=O)O)c2c1 [CBK270268],101.24
14,Cc1cc2cn([C@@H]3O[C@H](CO)[C@H](O)C3O)c(=O)nc2[nH]1 (stereo partly shown) [CBK201219],83.2907
15,CSCCN1CCCN(c2nccc(OCc3ccc(Cl)c(Cl)c3)n2)CC1 [CBK083960],12.5948
16,Cc1ccc(-c2ccc(Nc3ccc(Oc4ccccc4)cc3)nc2)cc1C [CBK037740],128.049
17,O=C(CSc1nnc(Cc2cccs2)n1-c1ccccc1)c1c[nH]c2ccccc12 [CBK268290],132.902
18,CCN(CC)C(=O)N1CCC(c2ccncc2)CC1 [CBK283503],95.7398
19,COc1cc(Nc2cccc(-c3ccco3)n2)cc(OC)c1OC [CBK037724],121.215
20,CN1Cc2ccccc2OC2(CCCN(C(=O)C3CC3)CC2)C1 (stereo not shown) [CBK285131],71.6764
21,COc1ccc(C(=O)Nc2nc3c(C)cccc3s2)c(OC)c1 [CBK287301],85.3109

row,Structure (SMILES),% of control remaining
1,O=S(=O)(N1CCCCC1)N1CCN(CC(O)COc2ccc3cc(Br)ccc3c2)CC1 (stereo not shown) [CBK269032],98.9101
2,CCC(NC(=O)Nc1cc(N2CCOCC2)ccc1Cl)c1nccs1 (stereo not shown) [CBK306519],49.4931
3,COc1cc(F)ccc1-c1nc(N)cc2cccnc12 [CBK081176],85.7422
4,COc1cc(CNCc2cnn(C)c2)c(O)c(C(C)(C)C)c1 [CBK304721],33.7068
5,c1ccc(N2CCN(Cc3cncn3C3CCCCC3)CC2)nc1 [CBK307345],61.6397
6,CC(=O)Nc1ccc(C(=O)NCc2ccc(S(N)(=O)=O)cc2)cc1 [CBK263642],106.276
7,C=CCn1c(SCC(=O)Nc2cccc(F)c2)nnc1-c1ccccc1O [CBK269620],92.4729
8,COC(=O)c1cccc(CN2CCC3(CC2)NC(=O)Cc2ccccc23)c1 [CBK039807],83.7701
9,Cc1cc(N2CCN(Cc3nc(C(C)(C)C)no3)CC2)nc(C(C)C)n1 [CBK305333],21.5222
10,O=C1NCC(c2ccccc2)C1C(=O)N/N=C\c1cc(O)ccc1[N+](=O)[O-] (stereo not shown) [CBK262772],101.296
11,Cc1cc(NC(=O)C2CCN(C(=O)CNc3ccccc3)CC2)no1 [CBK304297C],116.716
12,CN(CC(=O)NNC(=O)c1cccnc1)S(=O)(=O)c1cc(Cl)ccc1Cl [CBK267388],80.9736
13,COc1ccc(Br)cc1S(=O)(=O)Nc1c(C(=O)O)[nH]c2ccccc12 [CBK049887],87.4926
14,CC(C)C(=O)NC(C)c1nc(-c2ccncc2)n[nH]1 (stereo not shown) [CBK104021],101.044
15,O=C(NCCc1c[nH]c2ccc(Cl)cc12)c1ccc(Br)cc1Cl [CBK159762],65.1386
16,O=C(Nc1nnc(-c2ccccc2)o1)c1nc2ccccc2s1 [CBK287595],112.021
17,O=C(NCc1ccc(F)cc1)c1ccc(=O)n(CC(=O)N2CCC3(CCCCC3)C2)c1 [CBK286021],92.7528
18,COCCNC(=O)Cn1c(-c2cccs2)cc2cccnc21 [CBK282554],91.4902
19,COCCn1ccc(NC(=O)N2CCCC(c3cc(F)ccc3F)C2)n1 (stereo not shown) [CBK305451],55.9616
